# Patent US20210032308A1 (published 2021)
# Like-named read-outs stand apart in the source and are kept apart here.
# T1: recombinant human CD2 (biotinylated) (UniProt P06729 25-209, biotinylated (site not stated))
# T1 chain: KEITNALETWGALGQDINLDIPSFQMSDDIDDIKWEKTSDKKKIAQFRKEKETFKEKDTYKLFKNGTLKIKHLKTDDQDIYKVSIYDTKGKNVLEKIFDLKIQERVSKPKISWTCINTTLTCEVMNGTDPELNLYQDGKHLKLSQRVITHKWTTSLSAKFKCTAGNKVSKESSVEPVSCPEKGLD
# T2: recombinant cynomolgus CD2 (cynomolgus monkey, UniProt Q6SZ61 25-209, biotinylated (site not stated))
# T2 chain: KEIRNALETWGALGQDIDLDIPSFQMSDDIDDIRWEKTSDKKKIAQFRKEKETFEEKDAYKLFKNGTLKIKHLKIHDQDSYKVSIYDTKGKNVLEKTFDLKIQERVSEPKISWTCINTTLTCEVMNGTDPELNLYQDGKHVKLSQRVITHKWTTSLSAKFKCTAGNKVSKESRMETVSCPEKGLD
# How the values were obtained:
# Assay in all cases: SPR
# [1] = target: T1, recombinant human CD2 (biotinylated)
# [2] = target: T1, recombinant human CD2 (biotinylated)
# [3] = target: T2, recombinant cynomolgus CD2
# [4] = target: T1, recombinant human CD2 (biotinylated)
Kd [1] [nM],Kd [2] [nM],Kd [3] [nM],Kd [4] [nM],Binder
730,730,–,–,M1d1 LFA3-Fc fusion protein (Fc fusion) FSQQIYGVVYGNVTFHVPSNVPLKEVLWKKQKDKVVEFENSEVRAFSSFKNRVYLDTVSGSLTIYNLTSSDEDEYEMESPNITDTFKFFLYVL[human IgG1 Fc not shown]
–,–,1080,1040,M1-d3 Fc fusion protein (Fc fusion) FSQQIYGVVYGNVTFHVPSNVPLKEVLWKKQKDKVVEFENSEVRAFSSFKNRVYLDTVSGSLTIYNLTSSDEDEYEMESPNITDTFKFFLYVLESLPS[human IgG1 Fc not shown]
